# Test results reported in the supplement of paper PMC4967469.
# How the values were obtained:
# Assay in all cases: Viability of human cancer cell lines after 72 h of drug (GDSC screen)
# 17-AAG = compound: C=CCNC1=C2C[C@@H](C)C[C@H](OC)[C@H](O)[C@@H](C)/C=C(\C)[C@H](OC(N)=O)[C@@H](OC)/C=C\C=C(/C)C(=O)NC(=CC1=O)C2=O [17-AAG]; conditions: top dose 1 µM
# Method: (§1)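 Human cancer cell lines in 384-well plates, medium with 10% serum, drug for 72 h over a 256-fold dose range (nine 2-fold or five 4-fold steps up to the top dose). Adherent lines were fixed and stained with the nucleic acid dye Syto60, suspension lines read with resazurin; signal relative to control wells, capped at 0 and 100%. One two-parameter sigmoid per drug and line, fitted in a mixed model over all curves with the slope shared within a line.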
# BIX02189 = compound: CN(C)Cc1cccc(N=C(c2ccccc2)c2c(O)[nH]c3cc(C(=O)N(C)C)ccc23)c1 [BIX02189]; conditions: top dose 20 µM; top dose inferred
# Method: as §1
# Dimethyloxalylglycine = compound: COC(=O)CNC(=O)C(=O)OC [Dimethyloxalylglycine]; conditions: top dose 4000 µM; top dose inferred
# Method: as §1
# Doxorubicin = compound: COc1cccc2c1C(=O)c1c(O)c3c(c(O)c1C2=O)C[C@@](O)(C(=O)CO)C[C@@H]3O[C@H]1C[C@H](N)[C@H](O)[C@H](C)O1 [Doxorubicin]; conditions: top dose 1.024 µM
# Method: as §1
# OSI-027 = compound: COc1cccc2cc(-c3nc([C@H]4CC[C@H](C(=O)O)CC4)n4ncnc(N)c34)[nH]c12 [OSI-027]; conditions: top dose 20 µM
# Method: as §1
# Vismodegib = compound: CS(=O)(=O)c1ccc(C(=O)Nc2ccc(Cl)c(-c3ccccn3)c2)c(Cl)c1 [Vismodegib]; conditions: top dose 10 µM; top dose inferred
# Method: as §1
# VX-11e = compound: Cc1cnc(Nc2ccc(F)cc2Cl)nc1-c1c[nH]c(C(=O)N[C@H](CO)c2cccc(Cl)c2)c1 [VX-11e]; conditions: top dose 5.12 µM; top dose inferred
# Method: as §1
# TG101348 = compound: Cc1cnc(Nc2ccc(OCCN3CCCC3)cc2)nc1Nc1cccc(S(=O)(=O)NC(C)(C)C)c1 [TG101348]; conditions: top dose 10.24 µM
# Method: as §1
# UNC1215 = compound: O=C(c1ccc(C(=O)N2CCC(N3CCCC3)CC2)c(Nc2ccccc2)c1)N1CCC(N2CCCC2)CC1 [UNC1215]; conditions: top dose 1 µM; top dose inferred
# Method: as §1
# CCT018159 = compound: CCc1cc(-c2n[nH]c(C)c2-c2ccc3c(c2)OCCO3)c(O)cc1O [CCT018159]; conditions: top dose 10 µM; top dose inferred
# Method: as §1
Cell Line,AUC (17-AAG),IC50 (17-AAG),AUC (BIX02189),IC50 (BIX02189),AUC (Dimethyloxalylglycine),IC50 (Dimethyloxalylglycine),AUC (Doxorubicin),IC50 (Doxorubicin),AUC (OSI-027),IC50 (OSI-027),AUC (Vismodegib),IC50 (Vismodegib),AUC (VX-11e),IC50 (VX-11e),AUC (TG101348),IC50 (TG101348),AUC (UNC1215),IC50 (UNC1215),AUC (CCT018159),IC50 (CCT018159)
"SISO (cervix, adherent)",0.754,0.324 µM,0.984,> 20 µM,0.436,168 µM,0.513,0.0694 µM,0.839,12.9 µM,0.988,> 10 µM,0.981,> 5.12 µM,0.89,> 10.2 µM,0.987,> 1 µM,,
"KMRC-1 (kidney, adherent)",0.802,0.528 µM,0.971,> 20 µM,0.717,1070 µM,0.857,0.91 µM,0.876,> 20 µM,0.983,> 10 µM,0.9,> 5.12 µM,0.936,> 10.2 µM,,,0.957,> 10 µM
"MS751 (cervix, adherent)",0.651,0.158 µM,0.987,> 20 µM,0.529,298 µM,0.774,0.371 µM,0.926,> 20 µM,0.986,> 10 µM,0.987,> 5.12 µM,0.938,> 10.2 µM,0.989,> 1 µM,,
"MY-M12 (leukaemia, suspension)",0.915,> 1 µM,0.869,> 20 µM,0.148,16.7 µM,0.407,0.0345 µM,0.112,< 0.0781 µM,0.974,> 10 µM,0.78,2.4 µM,0.628,1.51 µM,,,0.909,> 10 µM
"IGR-1 (melanoma, adherent)",0.884,0.852 µM,0.941,> 20 µM,0.802,1700 µM,0.431,0.0425 µM,0.977,> 20 µM,0.967,> 10 µM,0.773,1.75 µM,0.989,> 10.2 µM,,,0.868,7.28 µM
"Hep 3B2_1-7 (liver, adherent)",0.891,> 1 µM,0.975,> 20 µM,0.347,94 µM,0.411,0.0365 µM,0.837,13.4 µM,0.976,> 10 µM,0.694,1.12 µM,0.942,> 10.2 µM,0.985,> 1 µM,,
"SNU-182 (liver, adherent)",0.844,0.766 µM,0.958,> 20 µM,0.438,168 µM,0.508,0.0675 µM,0.783,8.82 µM,0.969,> 10 µM,0.984,> 5.12 µM,0.771,4.1 µM,0.979,> 1 µM,,
"NCI-H838 (lung adenocarcinoma, adherent)",0.456,0.047 µM,0.962,> 20 µM,0.729,1160 µM,0.747,0.338 µM,0.964,> 20 µM,0.987,> 10 µM,0.983,> 5.12 µM,0.982,> 10.2 µM,0.985,> 1 µM,,
"SiHa (cervix, adherent)",0.546,0.085 µM,0.987,> 20 µM,0.646,675 µM,0.969,> 1.02 µM,0.935,> 20 µM,0.987,> 10 µM,0.986,> 5.12 µM,0.987,> 10.2 µM,0.985,> 1 µM,,
"LN-405 (glioma, adherent)",0.719,0.31 µM,0.981,> 20 µM,0.727,1330 µM,0.883,> 1.02 µM,0.45,0.884 µM,0.977,> 10 µM,0.978,> 5.12 µM,0.946,> 10.2 µM,0.981,> 1 µM,,
"DOHH-2 (B-cell lymphoma, suspension)",0.977,> 1 µM,,,0.504,256 µM,0.327,0.0214 µM,,,0.977,> 10 µM,,,,,,,,
"KOPN-8 (B-cell leukaemia, suspension)",0.739,0.267 µM,0.866,13.7 µM,0.738,1060 µM,0.398,0.0351 µM,0.138,0.118 µM,0.967,> 10 µM,0.873,3.77 µM,0.523,0.733 µM,0.985,> 1 µM,,
"G-292 Clone A141B1 (osteosarcoma, adherent)",0.893,> 1 µM,0.946,> 20 µM,0.384,99.3 µM,0.877,> 1.02 µM,0.743,9.69 µM,0.975,> 10 µM,0.976,> 5.12 µM,0.655,2.23 µM,0.972,> 1 µM,,
"OMC-1 (cervix, adherent)",0.622,0.138 µM,0.968,> 20 µM,0.484,226 µM,0.632,0.151 µM,0.543,1.65 µM,0.988,> 10 µM,0.959,> 5.12 µM,0.932,> 10.2 µM,0.986,> 1 µM,,
"SKG-IIIa (cervix, adherent)",0.505,0.0646 µM,0.98,> 20 µM,0.497,245 µM,0.718,0.331 µM,0.979,> 20 µM,0.98,> 10 µM,0.982,> 5.12 µM,0.981,> 10.2 µM,0.967,> 1 µM,,

# The IC50 comes from the fitted curve, where viability falls to half of the control; a fit beyond the top or the lowest dose is shown as a bound at that dose. AUC sums up the same curve from the lowest dose to the 256-fold higher top dose; it is 1 without any effect and falls as sensitivity rises. For some assays here: Where the top dose is marked as inferred, it comes from the curve model; the source does not state it.
